This is an account of results in the supplement of paper PMC10322689.

Where a name gives a salt, the structure may show the parent alone. This is one part of the list. Most values come without repeats; read them as rough.

The subject of the assay is mouse mesenchymal chondrosarcoma cells (HEY1-NCOA2). Description: XTT absorbance relative to DMSO control (cell viability) (fraction of DMSO control); higher = more viable cells / less growth inhibition.
In turn, `O=C(CCCCCCC(=O)Nc1ccccc1)NO` [vorinostat] yielded an XTT absorbance of 0.783. Under `COC(=O)C[C@H](NC(=O)[C@H](C)NC(=O)[C@@H](NC(=O)OCc1ccccc1)C(C)C)C(=O)CF` stands 0.892. Molecule `C1=Cc2nc1cc1nc(c(-c3ccccc3)c3ccc(cc4ccc([nH]4)c2-c2ccccc2)[nH]3)C=C1` displayed an XTT absorbance of 1.01. The same measure for `NC(=O)Nc1sc(-c2ccccc2)cc1C(N)=O` [IKK-2 inhibitor VI]: 0.783. Under `C=CC[C@@H]1/C=C(\C)C[C@H](C)C[C@H](OC)[C@H]2O[C@@](O)(C(=O)C(=O)N3CCCC[C@H]3C(=O)O[C@H](/C(C)=C/[C@@H]3CC[C@@H](O)[C@H](OC)C3)[C@H](C)[C@@H](O)CC1=O)[C@H](C)C[C@@H]2OC` stands 0.949. The same measure for `COc1cc2c(NC3CCN(C(C)C)CC3)nc(C3CCCCC3)nc2cc1OCCCN1CCCC1`: 0.943; for `Nc1ncn([C@@H]2O[C@H](CO)[C@@H](O)[C@H]2O)c(=O)n1` [Azacytidine]: 0.873; for `Nc1cccc(-c2cc3c(Oc4cccc(O)c4)ncnc3[nH]2)c1`: 0.703.

Take `COC(=O)Nc1nc2cc(C(=O)c3cccs3)ccc2[nH]1` [Nocodazole]: the XTT absorbance is 0.547. The same measure for `CNC(=O)[C@H](Cc1c[nH]c2ccccc12)NC(=O)[C@@H](CC(=O)NO)CC(C)C`: 0.861; for `CC(=O)N[C@@H](CS)C(=O)O` [N-Acetyl-L-cysteine]: 0.868; for `C/C=C/C=C\C=C/C(O)C(C)C(CCC(C)C1OC(=O)C=CC1C)OP(=O)(O)O` (centres undefined) [Cytostatin]: 0.888.

For the molecule `CC(=N)NCc1cccc(CN)c1`, the XTT absorbance worked out at 0.863.

In the case of `COc1cc2ncnc(Nc3ccc(NC(=O)c4ccccc4)cc3)c2cc1OC` [Aurora kinase inhibitor II], the XTT absorbance is 0.971. Under `OC[C@H]1NC[C@H](O)[C@@H](O)[C@@H]1O` [Deoxynojirimycin] stands 0.919.

Consider `CS(=O)(=O)CCNCc1ccc(-c2ccc3ncnc(Nc4ccc(OCc5cccc(F)c5)c(Cl)c4)c3c2)o1` [lapatinib], for which the XTT absorbance is 1.08. Under `CCN(CC)CCNC(=O)c1c(C)[nH]c(/C=C2\C(=O)Nc3ccc(F)cc32)c1C` [sunitinib malate] stands 0.76. Under `N#CCCc1ccc2c(c1)-c1[nH]c3ccc([N+](=O)[O-])cc3c1CC(=O)N2` [Alsterpaullone, 2-cyanoethyl] stands 0.912; under `O=C(Cc1ccccc1)Nc1c2c(nc3ccccc13)N(Cc1ccccc1)CC2`, 0.92. Under `CCN1/C(=C/C(C)=O)Sc2ccc(OC)cc21` stands 0.917. Consider `O=C(NCCCCCCNC(=O)ON=C1CCCCC1)ON=C1CCCCC1`, for which the XTT absorbance was 0.92. The same measure for `CC[C@@]1(O)C[C@H](O[C@H]2C[C@H](N(C)C)[C@H](O[C@H]3C[C@H](O)[C@H](O[C@H]4CCC(=O)[C@H](C)O4)[C@H](C)O3)[C@H](C)O2)c2c(cc3c(c2O)C(=O)c2c(O)cccc2C3=O)[C@H]1C(=O)OC` [Aclarubicin]: 0.402.

`O=CN1CCN(c2ccc(/C=C3\C(=O)Nc4ccccc43)cc2)CC1` registered an XTT absorbance of 0.955.

Take `CC/C(=C(\c1ccccc1)c1ccc(OCCN(C)C)cc1)c1ccccc1` [Tamoxifen, citrate]: the XTT absorbance is 0.997.
